# Reference: the supplement of paper PMC8728848
# The list shows a part of the results.
# B1: Gal 8 (Mus musculus), Q9JL15 (protein)
# chain: MGGSHHHHHHGMASMLSLNNLQNIIYNPIIPYVGTITEQLKPGSLIVIRGHVPKDSERFQVDFQLGNSLKPRADVAFHFNPRFKRSSCIVCNTLTQEKWGWEEITYDMPFRKEKSFEIVFMVLKNKFQVAVNGRHVLLYAHRISPEQIDTVGIYGKVNIHSIGFRFSSASALPHTLGDLQSMETSALGLTQINRENIQKPGKLQLSLPFEARLNASMGPGRTVVIKGEVNTNARSFNVDLVAGKTRDIALHLNPRLNVKAFVRNSFLQDAWGEEERNITCFPFSSGMYFEMIIYCDVREFKVAINGVHSLEYKHRFKDLSSIDTLSVDGDIRLLDVRSW
# What was measured:
# Assay in all cases: glycan array binding signal (z-score within array); higher = stronger binding
# Settings in all cases: glycan notation: IUPAC condensed, linker removed
# [1] = target: Neu5Ac(a2-3)Gal(b1-4)GlcNAc(b1-3)Gal(b1-4)GlcNAc(b1-2)Man(a1-3)[Neu5Ac(a2-3)Gal(b1-4)GlcNAc(b1-3)Gal(b1-4)GlcNAc(b1-2)Man(a1-6)]Man(b1-4)GlcNAc(b1-4)GlcNAc
# Procedure, shortened: (§1)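 Columns mapping to the same glycan were averaged after glycan names were converted to IUPAC-condensed notation. The data come from 3228 arrays in the Consortium for Functional Glycomics database, limited to those with an available protein sequence. Binding is reported as a within-array Z-score averaged across arrays of one protein sequence and across linkers.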
# [2] = target: Neu5Ac(a2-3)Gal(b1-4)GlcNAc(b1-3)Gal(b1-4)GlcNAc(b1-3)Gal(b1-4)GlcNAc
# Procedure, shortened: as §1
# [3] = target: Neu5Ac(a2-3)Gal(b1-4)GlcNAc(b1-3)Gal(b1-4)GlcNAc(b1-3)Gal(b1-4)GlcNAc(b1-2)Man(a1-3)[Neu5Ac(a2-3)Gal(b1-4)GlcNAc(b1-3)Gal(b1-4)GlcNAc(b1-3)Gal(b1-4)GlcNAc(b1-2)Man(a1-6)]GalNAc
# Procedure, shortened: as §1
# [4] = target: Neu5Ac(a2-3)Gal(b1-4)GlcNAc(b1-3)Gal(b1-4)GlcNAc(b1-3)GalNAc
# Procedure, shortened: as §1
# [5] = target: Neu5Ac(a2-3)Gal(b1-4)GlcNAc(b1-3)Gal(b1-4)GlcNAc(b1-3)[Neu5Ac(a2-3)Gal(b1-4)GlcNAc(b1-3)Gal(b1-4)GlcNAc(b1-6)]GalNAc
# Procedure, shortened: as §1
# [6] = target: Neu5Ac(a2-3)Gal(b1-4)GlcNAc(b1-3)Gal(b1-4)GlcNAc(b1-6)[Gal(b1-3)]GalNAc
# Procedure, shortened: as §1
# [7] = target: Neu5Ac(a2-3)Gal(b1-4)GlcNAc(b1-3)Gal(b1-4)[Fuc(a1-3)]GlcNAc
# Procedure, shortened: as §1
# [8] = target: Neu5Ac(a2-3)Gal(b1-4)GlcNAc(b1-3)GalNAc
# Procedure, shortened: as §1
# [9] = target: Neu5Ac(a2-3)Gal(b1-4)GlcNAc(b1-3)[Neu5Ac(a2-3)Gal(b1-4)GlcNAc(b1-6)]GalNAc
# Procedure, shortened: as §1
# [10] = target: Neu5Ac(a2-3)Gal(b1-4)GlcNAc(b1-6)GalNAc
# Procedure, shortened: as §1
# [11] = target: Neu5Ac(a2-3)Gal(b1-4)GlcNAc(b1-6)[Gal(b1-3)]GalNAc
# Procedure, shortened: as §1
# [12] = target: Neu5Ac(a2-3)Gal(b1-4)GlcNAc(b1-6)[Neu5Ac(a2-3)Gal(b1-3)]GalNAc
# Procedure, shortened: as §1
# [13] = target: Neu5Ac(a2-3)Gal(b1-4)GlcNAc6S
# Procedure, shortened: as §1
# [14] = target: Neu5Ac(a2-3)Gal(b1-4)[Fuc(a1-3)]GlcNAc
# Procedure, shortened: as §1
# [15] = target: Neu5Ac(a2-3)Gal(b1-4)[Fuc(a1-3)]GlcNAc(b1-2)Man
# Procedure, shortened: as §1
# [16] = target: Neu5Ac(a2-3)Gal(b1-4)[Fuc(a1-3)]GlcNAc(b1-3)Gal
# Procedure, shortened: as §1
# [17] = target: Neu5Ac(a2-3)Gal(b1-4)[Fuc(a1-3)]GlcNAc(b1-3)Gal(b1-4)GlcNAc
# Procedure, shortened: as §1
# [18] = target: Neu5Ac(a2-3)Gal(b1-4)[Fuc(a1-3)]GlcNAc(b1-3)Gal(b1-4)[Fuc(a1-3)]GlcNAc(b1-3)Gal(b1-4)[Fuc(a1-3)]GlcNAc
# Procedure, shortened: as §1
# [19] = target: Neu5Ac(a2-3)Gal(b1-4)[Fuc(a1-3)]GlcNAc(b1-3)GalNAc
# Procedure, shortened: as §1
# [20] = target: Neu5Ac(a2-3)Gal(b1-4)[Fuc(a1-3)]GlcNAc(b1-6)[Gal(b1-3)]GalNAc
# Procedure, shortened: as §1
# [21] = target: Neu5Ac(a2-3)Gal(b1-4)[Fuc(a1-3)]GlcNAc(b1-6)[Neu5Ac(a2-3)Gal(b1-3)]GalNAc
# Procedure, shortened: as §1
# [22] = target: Neu5Ac(a2-3)Gal(b1-4)[Fuc(a1-3)]GlcNAc6S
# Procedure, shortened: as §1
# [23] = target: Neu5Ac(a2-3)Gal6S(b1-4)GlcNAc
# Procedure, shortened: as §1
# [24] = target: Neu5Ac(a2-3)Gal6S(b1-4)[Fuc(a1-3)]GlcNAc
# Procedure, shortened: as §1
# Neu5Ac(a2-3)GalNAc = target: Neu5Ac(a2-3)GalNAc
# Procedure, shortened: as §1
# [25] = target: Neu5Ac(a2-3)GalNAc(b1-4)GlcNAc
# Procedure, shortened: as §1
# [26] = target: Neu5Ac(a2-3)[GalNAc(b1-4)]Gal(b1-4)Glc
# Procedure, shortened: as §1
# [27] = target: Neu5Ac(a2-3)[GalNAc(b1-4)]Gal(b1-4)GlcNAc
# Procedure, shortened: as §1
# [28] = target: Neu5Ac(a2-3)[GalNAc(b1-4)]Gal(b1-4)GlcNAc(b1-3)GalNAc
# Procedure, shortened: as §1
# [29] = target: Neu5Ac(a2-3)[Neu5Ac(a2-6)]GalNAc
# Procedure, shortened: as §1
# Neu5Ac(a2-6)Gal = target: Neu5Ac(a2-6)Gal
# Procedure, shortened: as §1
# [30] = target: Neu5Ac(a2-6)Gal(b1-3)GlcNAc(b1-3)[Gal(b1-4)GlcNAc(b1-6)]Gal(b1-4)Glc
# Procedure, shortened: as §1
# Neu5Ac(a2-6)Gal(b1-4)Glc = target: Neu5Ac(a2-6)Gal(b1-4)Glc
# Procedure, shortened: as §1
# [31] = target: Neu5Ac(a2-6)Gal(b1-4)GlcNAc
# Procedure, shortened: as §1
# [32] = target: Neu5Ac(a2-6)Gal(b1-4)GlcNAc(b1-2)Man
# Procedure, shortened: as §1
# [33] = target: Neu5Ac(a2-6)Gal(b1-4)GlcNAc(b1-2)Man(a1-3)Man(b1-4)GlcNAc(b1-4)GlcNAc
# Procedure, shortened: as §1
# [34] = target: Neu5Ac(a2-6)Gal(b1-4)GlcNAc(b1-2)Man(a1-3)[Gal(b1-4)GlcNAc(b1-2)Man(a1-6)]Man(b1-4)GlcNAc(b1-4)GlcNAc
# Procedure, shortened: as §1
# [35] = target: Neu5Ac(a2-6)Gal(b1-4)GlcNAc(b1-2)Man(a1-3)[GlcNAc(b1-2)Man(a1-6)]Man(b1-4)GlcNAc(b1-4)GlcNAc
# Procedure, shortened: as §1
binder,measurement,setting,value
B1,glycan array binding signal (z-score),[1],0.099
same,glycan array binding signal (z-score),[2],0.194
same,glycan array binding signal (z-score),[3],-0.088
same,glycan array binding signal (z-score),[4],-0.16
same,glycan array binding signal (z-score),[5],0.882
same,glycan array binding signal (z-score),[6],0.264
same,glycan array binding signal (z-score),[7],-0.215
same,glycan array binding signal (z-score),[8],-0.525
same,glycan array binding signal (z-score),[9],-0.507
same,glycan array binding signal (z-score),[10],-0.509
same,glycan array binding signal (z-score),[11],-0.33
same,glycan array binding signal (z-score),[12],-0.254
same,glycan array binding signal (z-score),[13],-0.146
same,glycan array binding signal (z-score),[14],-0.543
same,glycan array binding signal (z-score),[15],-0.542
same,glycan array binding signal (z-score),[16],-0.548
same,glycan array binding signal (z-score),[17],-0.53
same,glycan array binding signal (z-score),[18],-0.553
same,glycan array binding signal (z-score),[19],-0.485
same,glycan array binding signal (z-score),[20],-0.499
same,glycan array binding signal (z-score),[21],0.737
same,glycan array binding signal (z-score),[22],-0.52
same,glycan array binding signal (z-score),[23],-0.549
same,glycan array binding signal (z-score),[24],-0.546
same,glycan array binding signal (z-score),Neu5Ac(a2-3)GalNAc,-0.537
same,glycan array binding signal (z-score),[25],-0.542
same,glycan array binding signal (z-score),[26],-0.543
same,glycan array binding signal (z-score),[27],-0.54
same,glycan array binding signal (z-score),[28],-0.502
same,glycan array binding signal (z-score),[29],-0.546
same,glycan array binding signal (z-score),Neu5Ac(a2-6)Gal,-0.511
same,glycan array binding signal (z-score),[30],-0.258
same,glycan array binding signal (z-score),Neu5Ac(a2-6)Gal(b1-4)Glc,-0.311
same,glycan array binding signal (z-score),[31],-0.544
same,glycan array binding signal (z-score),[32],-0.548
same,glycan array binding signal (z-score),[33],-0.537
same,glycan array binding signal (z-score),[34],0.227
same,glycan array binding signal (z-score),[35],-0.547
